Results taken from patent US20240269277A1 (Hoffmann-La Roche, published 2024).

T1: IL-7 receptor (IL-7Ra/common gamma chain) on activated CD4 T cells (human, UniProt P16871 21-459; P31785 23-369)
T1 sequence (looked up) 1: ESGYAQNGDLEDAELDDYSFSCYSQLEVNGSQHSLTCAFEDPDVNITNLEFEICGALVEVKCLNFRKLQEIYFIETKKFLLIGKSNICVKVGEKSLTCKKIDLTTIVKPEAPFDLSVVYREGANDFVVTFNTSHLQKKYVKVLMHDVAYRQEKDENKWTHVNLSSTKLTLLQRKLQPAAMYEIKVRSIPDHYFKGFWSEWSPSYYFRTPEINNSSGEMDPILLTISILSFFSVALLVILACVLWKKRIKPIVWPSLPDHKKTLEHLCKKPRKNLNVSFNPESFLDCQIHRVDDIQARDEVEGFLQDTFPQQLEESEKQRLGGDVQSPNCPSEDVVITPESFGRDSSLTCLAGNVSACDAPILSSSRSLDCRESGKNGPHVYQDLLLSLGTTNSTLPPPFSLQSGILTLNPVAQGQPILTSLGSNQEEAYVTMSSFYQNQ
T1 sequence (looked up) 2: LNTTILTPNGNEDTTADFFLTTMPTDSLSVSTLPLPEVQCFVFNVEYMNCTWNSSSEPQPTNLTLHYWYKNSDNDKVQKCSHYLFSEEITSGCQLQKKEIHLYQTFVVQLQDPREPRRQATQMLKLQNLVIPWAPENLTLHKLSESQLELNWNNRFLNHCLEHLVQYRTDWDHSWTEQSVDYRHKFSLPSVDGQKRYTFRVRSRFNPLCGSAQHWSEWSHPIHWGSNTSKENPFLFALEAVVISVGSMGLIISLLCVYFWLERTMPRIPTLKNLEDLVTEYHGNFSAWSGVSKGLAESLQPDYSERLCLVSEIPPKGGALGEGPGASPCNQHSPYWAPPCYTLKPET

B1: PD1(alt)-IL7-VAR18/VAR21 (other)
light: DIVLTQSPASLAVSLGQRAAISCRASKGVSTSGYSYLHWYQQKPGQSPKLLIYLASYLESGVPARFSGSGSGTDFTLNIHPVEEEDAATYYCQHSRDLPLTFGTGTKLELKRTVAAPSVFIFPPSDEQLKSGTASVVCLLNNFYPREAKVQWKVDNALQSGNSQESVTEQDSKDSTYSLSSTLTLSKADYEKHKVYACEVTHQGLSSPVTKSFNRGEC
heavy 1: QVQLQQPGAELVKPGTSVKLSCKASGYTFTNYYMYWVKQRPGQGLEWIGGINPSNGGTNFNEKFKNKATLTVDSSSSTTYMQLSSLTSEDSAVYYCTRRDYRFDMGFDYWGQGTTLTVSSASTKGPSVFPLAPSSKSTSGGTAALGCLVKDYFPEPVTVSWNSGALTSGVHTFPAVLQSSGLYSLSSVVTVPSSSLGTQTYICNVNHKPSNTKVDKKVEPKSCDKTHTCPPCPAPEAAGGPSVFLFPPKPKDTLMISRTPEVTCVVVDVSHEDPEVKFNWYVDGVEVHNAKTKPREEQYNSTYRVVSVLTVLHQDWLNGKEYKCKVSNKALGAPIEKTISKAKGQPREPQVCTLPPSRDELTKNQVSLSCAVKGFYPSDIAVEWESNGQPENNYKTTPPVLDSDGSFFLVSKLTVDKSRWQQGNVFSCSVMHEALHNRFTQKSLSLSPG
heavy 2: QVQLQQPGAELVKPGTSVKLSCKASGYTFTNYYMYWVKQRPGQGLEWIGGINPSNGGTNFNEKFKNKATLTVDSSSSTTYMQLSSLTSEDSAVYYCTRRDYRFDMGFDYWGQGTTLTVSSASTKGPSVFPLAPSSKSTSGGTAALGCLVKDYFPEPVTVSWNSGALTSGVHTFPAVLQSSGLYSLSSVVTVPSSSLGTQTYICNVNHKPSNTKVDKKV[in this place human IgG1 Fc with changes]GGGGSGGGGSGGGGDCDIEGKDGKQYESVLMVSIDQLLDSMKEIGSNCLNNEFNFFKRHICDANKEGMFLFRAARKLRQFLKMNSTGDFDLHLLEVSEETTILLNCTGQVKGRKPAALGEAQPTKSLEENKSLKEQKKLNDLCFLKRLLQEIKTCWNKILMGTKEH
B2: PD1(alt)-IL7-VAR21 (other)
light: B1 light
heavy 1: B1 heavy 1
heavy 2: QVQLQQPGAELVKPGTSVKLSCKASGYTFTNYYMYWVKQRPGQGLEWIGGINPSNGGTNFNEKFKNKATLTVDSSSSTTYMQLSSLTSEDSAVYYCTRRDYRFDMGFDYWGQGTTLTVSSASTKGPSVFPLAPSSKSTSGGTAALGCLVKDYFPEPVTVSWNSGALTSGVHTFPAVLQSSGLYSLSSVVTVPSSSLGTQTYICNVNHKPSNTKVDKKV[in this place human IgG1 Fc with changes]GGGGSGGGGSGGGGDCDIEGKDGKQYESVLMVSIDQLLDSMKEIGSNCLNNEFNFFKRHICDANKEGMFLFRAARKLRQFLKMNSTGDFDLHLLKVSEETTILLNCTGQVKGRKPAALGEAQPTKSLEENKSLKEQKKLNDLCFLKRLLQEIKTCWNKILMGTKEH
B3: PD1(alt)-IL7wt (other)
light: B1 light
heavy 1: B1 heavy 1
heavy 2: QVQLQQPGAELVKPGTSVKLSCKASGYTFTNYYMYWVKQRPGQGLEWIGGINPSNGGTNFNEKFKNKATLTVDSSSSTTYMQLSSLTSEDSAVYYCTRRDYRFDMGFDYWGQGTTLTVSSASTKGPSVFPLAPSSKSTSGGTAALGCLVKDYFPEPVTVSWNSGALTSGVHTFPAVLQSSGLYSLSSVVTVPSSSLGTQTYICNVNHKPSNTKVDKKV[in this place human IgG1 Fc with changes]GGGGSGGGGSGGGGDCDIEGKDGKQYESVLMVSIDQLLDSMKEIGSNCLNNEFNFFKRHICDANKEGMFLFRAARKLRQFLKMNSTGDFDLHLLKVSEGTTILLNCTGQVKGRKPAALGEAQPTKSLEENKSLKEQKKLNDLCFLKRLLQEIKTCWNKILMGTKEH

These binders were tested against T1, IL-7 receptor (IL-7Ra/common gamma …) (assay: cell-based or functional assay).

Binder	Fold reduction in potency as EC50 [PD1^+] / EC50 [PD1^+ PD1(alt)-IL7wt]
B1	81.2 fold
B2	7.5 fold
B3	1 fold
